Values marked as one replicate rest on one cluster of the flow cell; about a third of the high ones do not repeat.
Tested on: ATP
Assay: switch fluorescence ratio, 500 uM ATP over buffer (Cy3 cluster intensity, sum of 5 cycles each) (fold (ratio)); higher = stronger signal-on switching upon ATP binding; sequences stand for … in TCGTCGGCAGCGTCAGATGTGTATAAGAGACAGTTTTTTTTTTTTTTTTTTTTTTTTT…TC
Conditions: aptamer strand: ATP DNA aptamer (quencher-CACCTGGGGGAGTATTGCGGAGGAAGG + anchor), 100 nM annealed; ATP concentration: 500 uM; one replicate
Summary of the method: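 Exposure to 500 uM ATP lasted 15 min at 22 °C before imaging, and a selection-buffer image was taken beforehand, for Cy3-labelled switching-strand clusters on a modified Illumina MiSeq flow-cell annealed to 100 nM quencher-labelled ATP aptamer. Five buffer/ATP cycles were run with NaOH stripping and re-annealing between them. The fluorescence ratio per cluster is summed target-cycle over summed buffer-cycle Cy3 intensity, averaged per switch-domain sequence. Clusters outside 100-1000 RFU were excluded.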

Q: For CACGAAGAGT, which switch fluorescence ratio is on record?
A: 1.11

Q: With CTTAGTCCTC as the sequence, how does the switch fluorescence ratio read?
A: 1

Q: Which switch fluorescence ratio does the source give for ACTGCGTTCG here?
A: 1.03

Q: With CAAAAGTCAT as the sequence, how does the switch fluorescence ratio read?
A: 0.982

Q: GGATGACACT was tested. Which switch fluorescence ratio did it give?
A: 0.958

Q: How did the switch fluorescence ratio turn out when ACCTCCCAA was run?
A: 5.46

Q: For GCAAACTCGA, which switch fluorescence ratio is on record?
A: 1.29

Q: With CAATTCGTTC as the sequence, how does the switch fluorescence ratio read?
A: 1.04

Q: CCTAGCTAAT was tested. Which switch fluorescence ratio did it give?
A: 2.08

Q: How did the switch fluorescence ratio turn out when CTGAAACTGA was run?
A: 1.03

Q: For GATGCTCACA, which switch fluorescence ratio is on record?
A: 1.02

Q: With GCGAAGCAAG as the sequence, how does the switch fluorescence ratio read?
A: 1.05

Q: With AGCGTGGGTA as the sequence, how does the switch fluorescence ratio read?
A: 1.02

Q: Which switch fluorescence ratio does the source give for CGCTCCTCAA here?
A: 6.34

Q: How did the switch fluorescence ratio turn out when TGGCCGTACC was run?
A: 1.21

Q: How did the switch fluorescence ratio turn out when CATGTTCGTA was run?
A: 1.01

Q: GTTCATACAA was tested. Which switch fluorescence ratio did it give?
A: 1

Q: For TGTCGCGGTG, which switch fluorescence ratio is on record?
A: 1.05

Q: Which switch fluorescence ratio does the source give for GGTTGGAGTA here?
A: 1.21

Q: For CTCTACCGTT, which switch fluorescence ratio is on record?
A: 1

Q: AGCTGCTGGT was tested. Which switch fluorescence ratio did it give?
A: 1.01

Q: With CCGTTATAAA as the sequence, how does the switch fluorescence ratio read?
A: 1.14

Q: How did the switch fluorescence ratio turn out when GTGATGATGG was run?
A: 0.978

Q: How did the switch fluorescence ratio turn out when GCAGTTTCGT was run?
A: 0.966

Q: With TCGTTGGAGC as the sequence, how does the switch fluorescence ratio read?
A: 1

Q: For GATTTACTTC, which switch fluorescence ratio is on record?
A: 1.01

Q: With CTGATTTAAG as the sequence, how does the switch fluorescence ratio read?
A: 0.994

Q: With AGACCAGAGG as the sequence, how does the switch fluorescence ratio read?
A: 1.1

Q: Which switch fluorescence ratio does the source give for TCGATACCGT here?
A: 0.985

Q: With GGATAGGAGG as the sequence, how does the switch fluorescence ratio read?
A: 0.984

Q: For GTCATCCTCG, which switch fluorescence ratio is on record?
A: 0.994

Q: For TAATTGTATG, which switch fluorescence ratio is on record?
A: 1.02

Q: For GCCGCAGCT, which switch fluorescence ratio is on record?
A: 1.13

Q: Which switch fluorescence ratio does the source give for AATTCAGCGC here?
A: 0.975

Q: With ACGTATACGC as the sequence, how does the switch fluorescence ratio read?
A: 1.1

Q: With TAAAGAATAT as the sequence, how does the switch fluorescence ratio read?
A: 1

Q: With CCGTAAAAC as the sequence, how does the switch fluorescence ratio read?
A: 2.76

Q: TTGATTTTCC was tested. Which switch fluorescence ratio did it give?
A: 0.963

Q: For GTCGCGCCGA, which switch fluorescence ratio is on record?
A: 0.976

Q: For AACAACCGTG, which switch fluorescence ratio is on record?
A: 1.01

Q: With CAAAGAAGCA as the sequence, how does the switch fluorescence ratio read?
A: 1.01

Q: GCTTTTCATA was tested. Which switch fluorescence ratio did it give?
A: 0.995

Q: How did the switch fluorescence ratio turn out when TTAACACCAA was run?
A: 1

Q: With AGTCCCATTT as the sequence, how does the switch fluorescence ratio read?
A: 1.02

Q: With AAATTCCGAC as the sequence, how does the switch fluorescence ratio read?
A: 1.82

Q: For CTAGTTCTGG, which switch fluorescence ratio is on record?
A: 0.974

Q: With TAAGTCATAA as the sequence, how does the switch fluorescence ratio read?
A: 1

Q: For GGTTACTACC, which switch fluorescence ratio is on record?
A: 1.03

Q: For TAGTCTACCC, which switch fluorescence ratio is on record?
A: 1.04

Q: Which switch fluorescence ratio does the source give for AGAGTTCGCT here?
A: 0.973

Q: ATCTGGGTGC was tested. Which switch fluorescence ratio did it give?
A: 1.14

Q: CGCATGAATT was tested. Which switch fluorescence ratio did it give?
A: 1.03

Q: Which switch fluorescence ratio does the source give for CTGGTACTTG here?
A: 1.03

Q: Which switch fluorescence ratio does the source give for AATCACGGTA here?
A: 1.21

Q: AAGCCTTG was tested. Which switch fluorescence ratio did it give?
A: 1

Q: With GGTCCCATGT as the sequence, how does the switch fluorescence ratio read?
A: 1.03

Q: Which switch fluorescence ratio does the source give for AACTACCCTC here?
A: 1.05

Q: How did the switch fluorescence ratio turn out when CTTATCTAGC was run?
A: 1.03

Q: GGTTAACGGC was tested. Which switch fluorescence ratio did it give?
A: 0.98

Q: With TCCCCCTTCT as the sequence, how does the switch fluorescence ratio read?
A: 1.94

Q: For TGAAGTAGTT, which switch fluorescence ratio is on record?
A: 1.02

Q: For ATCGGACGTC, which switch fluorescence ratio is on record?
A: 0.945

Q: Which switch fluorescence ratio does the source give for TTACCAAGTG here?
A: 1.03

Q: Which switch fluorescence ratio does the source give for TGGGCCTTTG here?
A: 0.979

Q: How did the switch fluorescence ratio turn out when GACCTGTGAC was run?
A: 1.05

Q: For TTTTGGCACC, which switch fluorescence ratio is on record?
A: 0.989

Q: Which switch fluorescence ratio does the source give for GTCGACAGTG here?
A: 1

Q: CTGGACGTT was tested. Which switch fluorescence ratio did it give?
A: 0.983

Q: With ATGAGGTAGC as the sequence, how does the switch fluorescence ratio read?
A: 0.993

Q: CTATAATTTG was tested. Which switch fluorescence ratio did it give?
A: 1.01

Q: Which switch fluorescence ratio does the source give for TACTAAGTA here?
A: 1.05

Q: For TCCGGCGTG, which switch fluorescence ratio is on record?
A: 1.02

Q: With ATAAAGAATT as the sequence, how does the switch fluorescence ratio read?
A: 0.98

Q: AACCATGAGT was tested. Which switch fluorescence ratio did it give?
A: 1.05

Q: With TAGGGGCGTT as the sequence, how does the switch fluorescence ratio read?
A: 0.981

Q: CTTGAGGGTA was tested. Which switch fluorescence ratio did it give?
A: 1.03

Q: For TTCAGGTCCG, which switch fluorescence ratio is on record?
A: 1

Q: AGGCTGTCGA was tested. Which switch fluorescence ratio did it give?
A: 1.03

Q: Which switch fluorescence ratio does the source give for CGGTGAGTAA here?
A: 0.977

Q: For TTGCATTCAT, which switch fluorescence ratio is on record?
A: 1.08

Q: How did the switch fluorescence ratio turn out when CGTCACGTGC was run?
A: 1.08

Q: Which switch fluorescence ratio does the source give for TCGGATTCAG here?
A: 0.996

Q: For TACCCTACTC, which switch fluorescence ratio is on record?
A: 1.19

Q: For GAACCCTGAC, which switch fluorescence ratio is on record?
A: 2.42

Q: Which switch fluorescence ratio does the source give for CGGTTTGAGG here?
A: 0.988

Q: With CGAATGCCCT as the sequence, how does the switch fluorescence ratio read?
A: 1

Q: With GAAGTTACAG as the sequence, how does the switch fluorescence ratio read?
A: 1.05

Q: How did the switch fluorescence ratio turn out when GCGACAGGAG was run?
A: 1

Q: For GTTATAACCC, which switch fluorescence ratio is on record?
A: 0.997

Q: GCGGGTTCGG was tested. Which switch fluorescence ratio did it give?
A: 0.971

Q: CTTGTTCGCA was tested. Which switch fluorescence ratio did it give?
A: 1.12

Q: With GTATTTAAAC as the sequence, how does the switch fluorescence ratio read?
A: 0.99

Q: AATACCAGGC was tested. Which switch fluorescence ratio did it give?
A: 1.1

Q: How did the switch fluorescence ratio turn out when TGGGGCCACG was run?
A: 1.02

Q: For TGGCACGGCC, which switch fluorescence ratio is on record?
A: 0.968

Q: For CGTGATATCG, which switch fluorescence ratio is on record?
A: 1

Q: For TTCATTTTTA, which switch fluorescence ratio is on record?
A: 0.987

Q: Which switch fluorescence ratio does the source give for CCGCTCTAGT here?
A: 1.94

Q: For TTGTAGCGAC, which switch fluorescence ratio is on record?
A: 1.06

Q: ACCGGCTTCG was tested. Which switch fluorescence ratio did it give?
A: 0.976

Q: With CTTTTTTAT as the sequence, how does the switch fluorescence ratio read?
A: 1.05

Q: How did the switch fluorescence ratio turn out when CCTATGGCAT was run?
A: 1.65

Q: With ACGTATCTTA as the sequence, how does the switch fluorescence ratio read?
A: 1.1

Q: How did the switch fluorescence ratio turn out when ACATCGAGCC was run?
A: 1.03

Q: With GATATGGACT as the sequence, how does the switch fluorescence ratio read?
A: 1

Q: For GCCGTGGTGG, which switch fluorescence ratio is on record?
A: 0.996

Q: How did the switch fluorescence ratio turn out when CAAATAGAGT was run?
A: 0.965

Q: With AGGTAGGTTG as the sequence, how does the switch fluorescence ratio read?
A: 1.02

Q: For GTTGGCTGGT, which switch fluorescence ratio is on record?
A: 0.992

Q: For TCAAATAAA, which switch fluorescence ratio is on record?
A: 0.982

Q: With TGGCTAGGGG as the sequence, how does the switch fluorescence ratio read?
A: 1.73

Q: How did the switch fluorescence ratio turn out when ACTAACTGCG was run?
A: 1.09

Q: For ACATGCAGCA, which switch fluorescence ratio is on record?
A: 1.02

Q: How did the switch fluorescence ratio turn out when TGCGACCGGT was run?
A: 0.968

Q: How did the switch fluorescence ratio turn out when TGAGTCGGTC was run?
A: 1

Q: For GATGCTGCAT, which switch fluorescence ratio is on record?
A: 1.01

Q: With GTGGTGTAAG as the sequence, how does the switch fluorescence ratio read?
A: 0.955

Q: For TTGATGCATG, which switch fluorescence ratio is on record?
A: 1.02

Q: With CGTTTGAAGT as the sequence, how does the switch fluorescence ratio read?
A: 0.934

Q: CGGCCCGGTG was tested. Which switch fluorescence ratio did it give?
A: 2.11

Q: Which switch fluorescence ratio does the source give for CAAATCGCAT here?
A: 1.17

Q: How did the switch fluorescence ratio turn out when CAGGTTACGT was run?
A: 0.983

Q: Which switch fluorescence ratio does the source give for AGCAACATCT here?
A: 1.14

Q: For GATCTCCTGC, which switch fluorescence ratio is on record?
A: 1.12

Q: How did the switch fluorescence ratio turn out when TAAAGTTGAA was run?
A: 0.983

Q: How did the switch fluorescence ratio turn out when TCCGACTCTG was run?
A: 0.953

Q: ATATAGAGGT was tested. Which switch fluorescence ratio did it give?
A: 0.952

Q: How did the switch fluorescence ratio turn out when ATGTCGCGTA was run?
A: 0.962

Q: How did the switch fluorescence ratio turn out when GTGTCATACT was run?
A: 1

Q: How did the switch fluorescence ratio turn out when AGTGCCCTGC was run?
A: 1.01

Q: With CTAGGCCCAG as the sequence, how does the switch fluorescence ratio read?
A: 1.01

Q: CCCAGTGAGT was tested. Which switch fluorescence ratio did it give?
A: 1.31

Q: For TCTAATCCGC, which switch fluorescence ratio is on record?
A: 1.59

Q: For GCTACCTGCG, which switch fluorescence ratio is on record?
A: 1.07

Q: How did the switch fluorescence ratio turn out when GTAGCTCAAA was run?
A: 1.05

Q: With TATTCGGAGA as the sequence, how does the switch fluorescence ratio read?
A: 0.988

Q: Which switch fluorescence ratio does the source give for CTGGTTGGGC here?
A: 1

Q: For ATTCATAGGG, which switch fluorescence ratio is on record?
A: 0.986

Q: How did the switch fluorescence ratio turn out when AAGCGGAACA was run?
A: 0.99

Q: How did the switch fluorescence ratio turn out when CCCCAGTATC was run?
A: 1.44

Q: For TGTAATCGCC, which switch fluorescence ratio is on record?
A: 0.985

Q: GCCAAGGGTG was tested. Which switch fluorescence ratio did it give?
A: 1.22

Q: AAACATTTAT was tested. Which switch fluorescence ratio did it give?
A: 1

Q: With GTGAACGCAG as the sequence, how does the switch fluorescence ratio read?
A: 1.08

Q: For GAATCCATAC, which switch fluorescence ratio is on record?
A: 1.24

Q: GGGTATTTC was tested. Which switch fluorescence ratio did it give?
A: 0.977

Q: Which switch fluorescence ratio does the source give for GATCGGCGGG here?
A: 1.02

Q: With AGGATTCAAC as the sequence, how does the switch fluorescence ratio read?
A: 0.989

Q: TTGCTACCCC was tested. Which switch fluorescence ratio did it give?
A: 1.23

Q: Which switch fluorescence ratio does the source give for CAACTCGTCG here?
A: 0.974

Q: For TCAGGCCGTG, which switch fluorescence ratio is on record?
A: 1.05

Q: Which switch fluorescence ratio does the source give for ATGTTAGAG here?
A: 1

Q: TATCCCTCGT was tested. Which switch fluorescence ratio did it give?
A: 1.01

Q: How did the switch fluorescence ratio turn out when TCATGCTATG was run?
A: 0.953

Q: How did the switch fluorescence ratio turn out when TAATTGTTCT was run?
A: 1.01

Q: How did the switch fluorescence ratio turn out when ACTTACATTG was run?
A: 1.2

Q: For AGATTCGGTT, which switch fluorescence ratio is on record?
A: 1.01

— the supplement of paper PMC10126150
